# ± gives the standard deviation of the averaged measurements. The list shows a part of the results.
# Test system: PfAP2-G AP2 domain (GST-tagged)
# Assay: gcPBM binding intensity (ln(normalized median fluorescence intensity)); higher = stronger DNA binding
# Summary of the method: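 Binding intensity values are the highest Masliner-normalised natural-log median intensity among replicate spots of either probe orientation. The binding step lasted 1 h in 1× PBS with 1% milk, 0.2 mg/ml BSA, 0.5% salmon testes DNA and 0.03% Triton X-100, using GST-tagged P. falciparum DNA-binding domains expressed in E. coli on an Agilent 4 × 180k array of primer-extended double-stranded 36-bp intergenic genomic probes plus negative controls. Alexa488 anti-GST antibody and a 488 nm scan detected bound protein.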
row,Sequence,gcPBM binding intensity (ln)
1,AGCTATGTATTCTACACACACATACACCCATATATA [CACACA_site5827],10.2 ± 0.2
2,TAATAAATAAATGACACACACACACCCAAAAAAAAA [CACACA_site2623],10.4 ± 0.28
3,ATACTAAGGAGAAAAGAAAAGTGAATTTATTCTATA [CACACA_negctrl_site1792],9.52 ± 0.25
4,AAATTTATGAACCTAGTGCAGAAATTAAAAAGATGA [GTGCAC_site9396],10.1 ± 0.11
5,AAAATATTATCTAATTGTACTTATATAACTATATAT [XGTACX_site5699],11.2 ± 0.84
6,TTGAAATGCATGAACACACACAGCTATAAATGCATA [CACACA_site968],9.95 ± 0.17
7,AATATAAGGATATATACACACATAAATACATACATA [CACACA_site7859],10.02 ± 0.099
8,TATTTTTTTAGATATACATGCAAAAACAGAAGAAAT [TGCATGCA_site283],10.3 ± 0.4
9,TCAACATTCATTGGAAGTACTCACTCCCATATAATA [XGTACX_site5211],11.2 ± 0.8
10,ATTCAATATTTATACACACACACTTTTAATAATTAA [CACACA_site7725],10.2 ± 0.16
11,ATATATATAATAAATACACACATTTATATAGATAAA [CACACA_site3254],9.925 ± 0.092
12,TCATTCAGTTTTATCACACACAATCAAACATATATA [CACACA_site2742],10.05 ± 0.014
13,ATAAAAAGAAATCCAATACACACCTTCAAAATGGGT [CACACA_site1622],10.11 ± 0.042
14,TGAACTTTAAACCCTGAACACACACTAATACACCCA [CACACA_site7970],10.7 ± 0.54
15,AATATGTCATATATGTGTACATATGCACAGATATTA [XGTACX_site951],11.4 ± 0.8
16,AATTGCTAATGGTACGAACACACATATAAAGATGCA [CACACA_site8634],10.6 ± 0.33
17,TATTTATGCACGCGTGCACACACATATGAAAAAAGG [CACACA_site9090],11 ± 0.6
18,CTTTCATATGTTTTAACACACACGCATATATTATAG [CACACA_site7033],10.2 ± 0.14
19,AAGAATGTTAACGTTGCACACAAAAAAAAAGTATAC [CACACA_site8763],10.4 ± 0.23
20,ATATAAGTTATTTTATACAAAAAAAAAAAAAAAAAT [CACACA_negctrl_site1190],9.825 ± 0.049
21,AAAAAAAAAAAAAATACACACACATATATATATATA [CACACA_site8698],10.1 ± 0.41
22,TGTCTTTTTAAGTTTTGTACATAAATATATTTCAAA [XGTACX_site427],11.1 ± 0.49
23,GTAAACAATTATGAACGTACATAAAATAAATGAACA [XGTACX_site7159],11.3 ± 0.85
24,TAATATTATATAAATTGTACTATTTTTTCCTTATTC [XGTACX_site5314],11.2 ± 0.72
